Assay results reported in PubChem BioAssay AID624296 (National Center for Advancing Translational Sciences (NCATS), 2012).
The whole screen tested about 350,000 compounds, of which about 9,900 (2.8%) were called active. This list was built around the results that the source calls inconclusive (neither active nor inactive); the mix of calls is not that of the screen. Calls come from the whole dose curve; as a rule, active = well fitted activation curve with a large enough effect; inconclusive = small, poorly fitted or top-dose-only effect; inactive = no such curve, though single readings can be large or run the other way. No potency is given beside an inconclusive call; the fits are too rough.

Assay: A quantitative high throughput screen for small molecules that induce DNA re-replication in MCF 10a normal breast cells. Note: nearly all actives have a fitted effect of over 50% in size.
Conditions: MCF 10A DNA re-replication, Hoechst nuclear intensity, 48 h; series mostly up to 46.1 µM
Potency is the fitted concentration of half-maximal effect; tags give direction and shape of the fitted curve.

Compound	Potency
Clc1ccc(-c2nc(-c3ccccn3)no2)cc1Cl	inactive
COCc1cc(C)nc2sc(C(=O)Nc3cccc(OC)c3)c(N)c12	active: 10.3 µM
O=C(O)c1oc2ccccc2c1CSc1ccc(Cl)cc1	inconclusive [activator, single point]
Cc1ccc(F)c(NC(=O)/C(C#N)=C(\O)c2ccc(C(C)(C)C)cc2)c1	inconclusive [activator, partial curve]
COC(=O)C1=C(C)NC(=O)/C1=C\c1cc(C)n(-c2cc(C)cc(C)c2)c1C	inconclusive [activator, partial curve]
Cc1ccc2nc(-c3ccc(NC(=S)NCC(C)(C)CN(C)C)cc3)sc2c1	active: 18.4 µM
C/C=C(/C)C(=O)O[C@@H]1[C@H](OC(C)=O)c2c(ccc3ccc(=O)oc23)OC1(C)C	inactive
C(=N\Nc1ccc2nncn2n1)/c1ccco1	inactive
CN(C)/C=C/C1=CC(=O)CC(C)(C)C1	inconclusive [activator, single point]
COc1ccc(CNCC(O)(c2ccccc2)c2ccc(F)cc2)cc1OC (centres undefined)	inconclusive [activator, full curve, poor fit]
COc1ccc(-c2nn(-c3ccccc3C)cc2CNC(C)c2cn(C)nc2C)cc1F (centres undefined)	inconclusive [activator, partial curve, poor fit]
O=C(C[n+]1cc(Br)cc2ccccc21)c1ccc(Br)cc1	inconclusive [activator, partial curve, poor fit]
CCOc1cc(Br)c(CN2C(=O)NC3(CCCCCC3)C2=O)cc1OCC	inconclusive [activator, partial curve, poor fit]
CCNS(=O)(=O)c1ccc(CCC(=O)N2CCN(Cc3ccccc3)CC2)cc1	inactive
CCOc1cc(/C=N/NC(=O)COc2ccc(Cl)cc2)ccc1OS(=O)(=O)c1ccccc1	inconclusive [activator, full curve, poor fit]
Cc1c2ccccc2c(C)c2c1ccc1ccccc12	inconclusive [activator, partial curve, poor fit]
CCCCC1CCC(C(=O)N(C)CC(=O)Nc2cccc(F)c2)CC1 (centres undefined)	inconclusive [activator, single point]
CN(C(=O)c1ccc(NC(=O)Cc2cccc(NC(=O)C3CCN(C(=O)C4CCCCC4)CC3)c2)cc1)C1CCCC1	inconclusive [activator, full curve, poor fit]
CCn1c(=N)n(CC(O)COc2cccc(C)c2)c2ccccc21 (centres undefined)	inconclusive [activator, partial curve, poor fit]
Cc1ccccc1-c1cccc([C@@H]2C[C@H]3[C@H](CON3C)CN2Cc2ccccc2)c1	active: 18.4 µM
C=CCOc1ccn(C)c(=O)n1	inactive
CS(=O)(=O)N1CCCC(C(=O)Nc2c(F)cccc2F)C1 (centres undefined)	inconclusive [activator, single point]
COc1cc(OC)c(OC)cc1CN1CCN(Cc2cccc(F)c2)CC1	inactive

Compound	Potency
O=C1C2CCCCN2C(=O)N1CCCCN1CCN(c2ccccc2Oc2ccccc2)CC1 (centres undefined)	inconclusive [activator, partial curve, poor fit]
COc1ccc(NC(=O)C2CCN(S(C)(=O)=O)CC2)cc1	inconclusive [activator, partial curve]
COc1ccc(-c2cc(C(F)(F)F)n3ncc(C(=O)NCC4CCCO4)c3n2)cc1 (centres undefined)	inconclusive [activator, single point]
O=C(NCC(c1cccs1)N1CCOCC1)c1cc(S(=O)(=O)N2CCOCC2)ccc1Cl (centres undefined)	inactive
COC(=O)c1ccc(NC(=O)c2ccc(CN3CCOCC3)cc2)cc1	inconclusive [activator, single point]
O=C(CSc1nccc(-c2cccs2)n1)Nc1cccc(Cl)c1	inconclusive [activator, single point]
N#CCc1ccc(NC(=O)c2cc(S(=O)(=O)N3CCOCC3)ccc2Cl)cc1	inactive
CN1CCN(c2ccccc2NC(=O)c2cccs2)CC1	inactive
CCCN1CCC(=O)N([C@H](COc2ccccc2)c2ccccc2)CC1	inactive
Cc1ccc(-c2nc(N=Nc3ccc(O)cc3)n[nH]2)cc1	inconclusive [activator, single point]
O=C(NCCCN1CCOCC1)c1ccc2nc(Cc3cccc(Cl)c3)oc2c1	inconclusive [activator, partial curve, poor fit]
CC(C)n1cnc2c(Nc3ccc(F)c(Cl)c3)nc(NCCO)nc21	inconclusive [activator, single point]
CCOC(=O)c1sc(=S)n(-c2ccccc2)c1NC(C)=O	inconclusive [activator, full curve, poor fit]
CN(C)CCCN(C(=O)c1cc2cc([N+](=O)[O-])ccc2s1)c1nc2cc3c(cc2s1)OCCO3	inconclusive [activator, single point]
CCCc1c(C)[nH]c2ccc(NC(C)=O)cc2c1=O	inconclusive [activator, single point]
Cc1nc(Cl)c(N=Cc2cccc([N+](=O)[O-])c2)c(Cl)n1	inconclusive [activator, single point]
OC(Cc1cccnc1)(c1ccccc1)c1ccccc1	inactive
Cc1cccc2c(C(=O)N3CCCCC3)cc(-c3ccccc3)nc12	inconclusive [activator, single point]
Cc1c(C)n(CCCN(C)C)c2ncnc(NC3CCCCC3)c12	inconclusive [activator, partial curve, poor fit]
CN(c1ccccc1)c1nc(N)c([N+](=O)[O-])c(NCc2ccco2)n1	inconclusive [activator, single point]
Cc1c(C(=O)O)sc(=S)n1CCOc1ccccc1	inconclusive [activator, single point]
CCN(CC)CCCCNc1ncc2cc(-c3cc(OC)cc(OC)c3)c(NC(=O)NC(C)(C)C)nc2n1	inconclusive [activator, partial curve, poor fit]
O=C(Nc1cccc(Cl)c1Cl)C1CC(=O)N(c2ccc(Br)cc2)C1 (centres undefined)	active: 5.8 µM

Compound	Potency
CCC(=O)c1ccc(N2CCN(C(=O)c3ccccc3Br)CC2)c(F)c1	inactive
CCc1ccc2c(CN(C)Cc3ccccc3OC)cc(=O)oc2c1	inconclusive [activator, full curve, poor fit]
Cn1nnnc1Sc1ncnc2scc(-c3cccc(F)c3)c12	inconclusive [activator, full curve, poor fit]
CC1CCCC(NC(=O)COC(=O)COc2ccccc2Cl)C1C (centres undefined)	inconclusive [activator, partial curve, poor fit]
O=C(COc1c(F)c(F)c(C(F)(F)F)c(F)c1F)Nc1ccc(N2CCOCC2)c(Cl)c1	inconclusive [activator, single point]
CCCCn1c(SCC(=O)Nc2cc(NC(=O)c3ccco3)ccc2C)nc2ccccc2c1=O	inconclusive [activator, single point]
CCCCn1c(-c2ccc(Br)cc2F)nc2c1c(=O)[nH]c(=O)n2CC(C)C	active: 18.4 µM
CC1CC(C)CN(C(=O)CNS(=O)(=O)c2ccc(Br)s2)C1 (centres undefined)	inactive
COc1ccc(C)cc1NC(=O)C(NCC1CCCO1)c1ccccc1 (centres undefined)	inconclusive [activator, full curve, poor fit]
Cc1cc(C)nc(NS(=O)(=O)c2ccc(NC(=O)c3ccc(O)cc3O)cc2)n1	inactive
COc1ccc2[nH]c(=O)c(CN(Cc3ccco3)C(=O)c3ccccc3)cc2c1	inconclusive [activator, full curve, poor fit]
CC(C)CNc1nnnc2c1sc1nc(N3CCOCC3)c3c(c12)CCCC3	inactive
O=C(NC1=NCCS1)c1cc(-c2cccc(Br)c2)nc2ccccc12	inconclusive [activator, full curve]
COc1ccccc1CNC(=O)Cc1csc(NC(=O)Nc2ccccc2OC)n1	inconclusive [activator, single point]
O=c1c2[nH]c3ccccc3c2ncn1CCCn1ccnc1	inconclusive [activator, partial curve, poor fit]
OC(c1ccc(OCc2ccccc2)cc1)c1nnc(-c2ccccc2)o1 (centres undefined)	inconclusive [activator, single point]
C/C(Cl)=C/Cc1c(C)[nH]c2c(ccc3ccccc32)c1=O	inactive
Cc1c(C(=O)Nc2ccc3c(c2)OCO3)sc2ncn(CC(=O)N3CC(C)CC(C)C3)c(=O)c12 (centres undefined)	inactive
CCC(C)n1c(=N)c(C#N)cc2c(=O)n3cccc(C)c3nc21 (centres undefined)	inconclusive [activator, single point]
N#Cc1c(Cl)nsc1NC(=O)c1ccccc1	inconclusive [activator, partial curve, poor fit]
Cc1ccc(S(=O)(=O)N2CCOCC2)cc1NC(=O)CNCc1cccnc1	inactive
CC(=O)Nc1ccc(S(=O)(=O)NCCC(=O)NCc2ccncc2)cc1	inactive
CCn1c(=O)c(C(=O)NCCCc2ccccc2)c(O)c2ccccc21	inconclusive [activator, partial curve]
